“And” between values parts separate entries of the source, which are not always exact repeats. Equal values may be shown once. Where a name gives a salt, the structure may show the parent alone. ± gives the standard deviation of the averaged measurements. Whole data set: some 2,800 compounds, median “cell viability relative to vehicle” near 1.1, cut for the lowest 2% near 0.19. The list shows a part of the results.
Each compound was assayed on NCI-H2228 parental (assay: cell viability relative to vehicle (fraction of vehicle); NCI-H2228 is an ALK-positive lung cancer line and DTP means drug-tolerant persister; higher = less growth inhibition). Conditions: 100 nM; treatment time 6 days.
How it was run: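 Each value is viability relative to vehicle-treated cells, measured as ATP with the CellTiter-Glo 3D Cell Viability Assay. Parental NCI-H2228 cells and drug-tolerant persisters (1000 nM targeted drug, 13 days) in 384-well plates received the 3114-agent TargetMol anti-cancer compound library at 100 nM, or DMSO, and were read 6 days later.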
Work on `CC(=O)OCC1=CO[C@@H](OC(=O)CC(C)C)[C@H]2C1=C[C@H](OC(=O)CC(C)(C)OC(C)=O)[C@]21CO1` [Acevaltrate] yielded a cell viability of 1.04.
`CC1OC2(CS1)CN1CCC2CC1` (stereo not drawn) [Cevimeline hydrochloride hemihydrate] was tested, and the cell viability was 0.887.
`CC[C@H](C)[C@H](N)C(=O)O` [isoleucine] gave a cell viability of 1.16.
`CCOc1nc2cccc(C(=O)O)c2n1Cc1ccc(-c2ccccc2-c2nnn[nH]2)cc1` [Candesartan] was tested, and the cell viability was 1.24.
`CCOC(=O)N1CCC(CN(Cc2ccc(Cl)cc2)Cc2ccc([N+](=O)[O-])s2)C1` (stereo not drawn) gave a cell viability of 0.991.
In the case of `O=C(Oc1cccc(F)c1OC(=O)c1cccc(O)c1)c1cccc(O)c1`, the cell viability is reported as 1.11.
Work on `CCCNC(=O)c1cn2ncnc(Nc3cc(C(=O)NC4CC4)ccc3C)c2c1C` yielded a cell viability of 1.1.
`O=C(Nc1cccnc1)c1cc(-c2ccnc(F)c2)ccc1OCc1ccccc1` showed a cell viability of 1.09.
In the case of `COc1cc2ncnc(Nc3cccc(Br)c3)c2cc1OC`, the cell viability is reported as 0.975 and 1.03.
`CN(C)CCC(c1ccc(Br)cc1)c1ccccn1` (stereo not drawn) [Brompheniramine hydrogen maleate] gave a cell viability of 1.09.
For `COc1cc2c(cc1O)CC[n+]1cc3c(OC)c(OC)ccc3cc1-2` [Jatrorrhizine], the cell viability was 1.06.
Work on `c1ccc(-c2ccc(C(c3ccccc3)n3ccnc3)cc2)cc1` (stereo not drawn) [Bifonazole] yielded a cell viability of 1.08.
`COc1cc2ncnc(Nc3cccc(Cl)c3F)c2cc1OC(=O)N1CCN(C)C[C@H]1C` [AZD3759 hydrochloride] showed a cell viability of 1.1.
`COc1cc2ncnc(Nc3cccc(Cl)c3F)c2cc1OC(=O)N1CCN(C)C[C@H]1C` gave a cell viability of 1.06.
`CCCCCCCCCC(=O)CC(O)S(=O)(=O)O` (stereo not drawn) [Sodium houttuyfonate] gave a cell viability of 1.09.
`CC(C)Oc1ccc(-c2nn([C@@H](C)c3oc4ccc(F)cc4c(=O)c3-c3cccc(F)c3)c3ncnc(N)c23)cc1F` gave a cell viability of 1.01.
Work on `CC(C)=CC(=O)CCC(=O)N1CCN(Cc2cc3nc(-c4cccc5[nH]ncc45)nc(N4CCOCC4)c3s2)CC1` yielded a cell viability of 1.01.
`CC(=O)OC[C@H]1O[C@@H]([S-])[C@H](OC(C)=O)[C@@H](OC(C)=O)[C@@H]1OC(C)=O.CCP(CC)CC.[Au+]` [Auranofin] was tested, and the cell viability was 0.905.
`COc1cc(Nc2c(C#N)cnc3cc(OCCCN4CCN(C)CC4)c(OC)cc23)c(Cl)cc1Cl` [Bosutinib] was tested, and the cell viability was 1.06.
`CCCCc1oc2ccc(NS(C)(=O)=O)cc2c1C(=O)c1ccc(OCCCN(CCCC)CCCC)cc1` [Dronedarone hydrochloride] showed a cell viability of 1.07.
In the case of `COc1ccc(C(c2c[nH]c3ccccc23)c2c[nH]c3ccccc23)cc1`, the cell viability is reported as 1.05.
With `CCC1(c2ccccc2)C(=O)NCNC1=O` [Primidone] the cell viability was 1.16.
`CCCCCCCCNc1cc(=O)[nH]c(=O)[nH]1` gave a cell viability of 1.01.
`CCOC(=O)[C@H]1O[C@@H]1C(=O)N[C@@H](CC(C)C)C(=O)NCCC(C)C` [Aloxistatin] was tested, and the cell viability was 1.12.
Compound `Cc1noc(-c2ccc(-c3ccc(CC(=O)O)cc3)cc2)c1NC(=O)OC(C)c1ccccc1Cl` (stereo not drawn) has a cell viability of 0.97.
`CCN1CCN(Cc2ccc(NC(=O)Nc3ccc(Oc4cc(NC)ncn4)cc3)cc2C(F)(F)F)CC1` was tested, and the cell viability was 1.19.
For `CC(C)NCC(O)COc1ccc(CC(N)=O)cc1` (stereo not drawn) [Atenolol], the cell viability was 1.1.
In the case of `COCC(=O)NC/C=C/c1ccc2ncnc(Nc3ccc(Oc4ccc(C)nc4)c(C)c3)c2c1`, the cell viability is reported as 0.991.
With `CC(C)(O)[C@H]1CC[C@H](Nc2ccc3ncc(-c4cccc(C(F)(F)F)c4)n3n2)CC1` the cell viability was 0.928.
Work on `Cn1c(=O)c2c(ncn2CC2OCCO2)n(C)c1=O` [Doxofylline] yielded a cell viability of 1.2.
In the case of `Oc1cc2c(cc1O)C(c1ccccc1)CNCC2` (stereo not drawn), the cell viability is reported as 0.982.
`Cc1ccc([C@@H]2O[C@H](CO)[C@@H](O)[C@H](O)[C@H]2O)cc1Cc1ccc(-c2ccc(F)cc2)s1` [Canagliflozin] showed a cell viability of 1.05.
Work on `C=C1C(=O)O[C@@H]2C[C@@]3(C)CCCC(=C)[C@@H]3C[C@H]12` [Isoalantolactone] yielded a cell viability of 0.94.
In the case of `CC(C)(C)c1cc(C(C)(C)C)c(NC(=O)c2c[nH]c3ccccc3c2=O)cc1O` [Ivacaftor], the cell viability is reported as 0.825.
For `CC(C)NC[C@@H](C(=O)N1CCN(c2ncnc3c2[C@H](C)C[C@H]3O)CC1)c1ccc(Cl)cc1` [Ipatasertib], the cell viability was 1.
`CN1CCN(CC(=O)N2c3ccccc3C(=O)Nc3cccnc32)CC1` [Pirenzepine dihydrochloride] showed a cell viability of 1.32.
With `CCCc1cc(C)[nH]c(=O)c1CNC(=O)c1cc(-c2ccnc(N3CCN(C)CC3)c2)cc2c1cnn2C(C)C` the cell viability was 1.09.
In the case of `C=CCNc1ncnc2ccc(Br)cc12`, the cell viability is reported as 1.1.
Compound `CC(C)=CCC[C@](C)(O[C@@H]1O[C@H](CO)[C@@H](O)[C@H](O)[C@H]1O)[C@H]1CC[C@]2(C)[C@@H]1[C@H](O)C[C@@H]1[C@@]3(C)CC[C@H](O[C@@H]4O[C@H](CO)[C@@H](O)[C@H](O)[C@H]4O[C@@H]4O[C@H](CO)[C@@H](O)[C@H](O)[C@H]4O)C(C)(C)[C@@H]3CC[C@]12C` [Ginsenoside Rd] has a cell viability of 1.18.
`OCC(CO)N[C@H]1C[C@](O)(CO)[C@@H](O)[C@H](O)[C@H]1O` [Voglibose] showed a cell viability of 1.01.
`Cc1cc(Nc2ncnc3ccc(NC4=NC(C)(C)CO4)cc23)ccc1Oc1ccn2ncnc2c1` [Irbinitinib] gave a cell viability of 1.09.
`CCc1ccc(/C=C2/SC(=S)NC2=O)cc1` showed a cell viability of 1.14.
Work on `Cc1ccc(Nc2nccc(N(C)c3ccc4c(C)n(C)nc4c3)n2)cc1S(N)(=O)=O` [Pazopanib] yielded a cell viability of 1.19.
For `CCCCC(=O)N(Cc1ccc(-c2ccccc2-c2nnn[nH]2)cc1)[C@H](C(=O)O)C(C)C` [Valsartan], the cell viability was 0.983.
In the case of `COc1cc(Nc2ncc3c(n2)-c2ccc(Cl)cc2C(c2c(F)cccc2OC)=NC3)ccc1C(=O)O` [Alisertib], the cell viability is reported as 0.236.
`OC(CCN1CCCCC1)(c1ccccc1)c1ccccc1` [Loxeen] showed a cell viability of 1.07.
With `CN1c2ccccc2C(=O)N2CCc3c([nH]c4ccccc34)C21` (stereo in doubt) [Evodiamine] the cell viability was 0.886.
`COc1ccc2cc1Oc1ccc(cc1)C[C@H]1c3cc(c(OC)cc3CCN1C)Oc1c(O)c(OC)cc3c1[C@H](C2)N(C)CC3` [Fangchinoline] showed a cell viability of 1.06 ± 0.13.
In the case of `O=C1c2cccc(O)c2C(=O)c2c(O)cccc21` [Antrapurol], the cell viability is reported as 1.06.
Work on `O=c1cc(N2CCOCC2)oc2c(-c3ccccc3)cccc12` yielded a cell viability of 1.01.
With `Nc1ncccc1-c1nc2ccc(-c3ccccc3)nc2n1-c1ccc(C2(N)CCC2)cc1` [Miransertib] the cell viability was 0.838.
For `CCOC(N)=O` [Urethane], the cell viability was 1.03.
For `Nc1cc(C(F)(F)F)c(-c2cc(N3CCOCC3)nc(N3CCOCC3)n2)cn1` [Buparlisib], the cell viability was 0.906.
`O=C(NCCN1CCOCC1)Nc1ccc(C(=O)/C=C/c2cccc(N3CCOCC3)n2)cc1` was tested, and the cell viability was 1.09.
With `Cc1c(C(=O)Nc2ccc(N3C[C@@H](C)O[C@@H](C)C3)nc2)cccc1-c1ccc(OC(F)(F)F)cc1` the cell viability was 1.08.
For `CSCC[C@H](NC(=O)[C@H](Cc1c[nH]c2ccccc12)NC(=O)CCNC(=O)OC(C)(C)C)C(=O)N[C@@H](CC(=O)O)C(=O)N[C@@H](Cc1ccccc1)C(N)=O` [Pentagastrin], the cell viability was 0.739.
With `Cc1ccc(Sc2cncc3sc(C(N)=O)cc23)cc1` the cell viability was 1.11.
For `O=C1S/C(=C\c2ccc(OCc3cccc(B(O)O)c3)cc2)C(=O)N1Cc1ccc(F)cc1`, the cell viability was 1.06.
`CC(C)NNC(=O)c1ccncc1` [Iproniazid Phosphate] showed a cell viability of 1.05.
Compound `CN(C)CCc1c[nH]c2ccc(CS(=O)(=O)N3CCCC3)cc12` [Almotriptan Malate] has a cell viability of 0.968.
Compound `CCOC(=O)c1cc(O)c(O)c(O)c1` [Ethyl gallate] has a cell viability of 1.14.
With `CN(c1ncccc1CNc1nc(Nc2ccc3c(c2)CC(=O)N3)ncc1C(F)(F)F)S(C)(=O)=O` the cell viability was 0.855 and 1.11.
Work on `COc1ccc(/C=C/C(=O)NO)c(-c2ccc(-c3ccccc3)cc2)c1` yielded a cell viability of 1.06.
`CC(CNC(=O)c1cccnc1)NC(=O)c1cccnc1` (stereo not drawn) [Nicaraven] gave a cell viability of 1.08.
In the case of `O=C(O)CCC(=O)c1ccc(-c2ccccc2)cc1` [Fenbufen], the cell viability is reported as 1.16.
In the case of `CNc1ccc([N+](=O)[O-])c(Nc2ccc3[nH]ncc3c2)n1`, the cell viability is reported as 1.06.
`CN1CCCN(C(=O)c2cccc(-c3ccc(/C=C4/C(=O)Nc5ccc(Cl)cc54)o3)c2)CC1` gave a cell viability of 0.82.
In the case of `CCCCCCCCOc1ccccc1C(=O)Nc1ccc(C(=O)OCC[N+](C)(CC)CC)cc1` [Otilonium bromide], the cell viability is reported as 1.21.
`CCCCc1ncc(/C=C(\Cc2cccs2)C(=O)O)n1Cc1ccc(C(=O)O)cc1` [Eprosartan Mesylate] showed a cell viability of 1.13.
`CC/C(=C(/c1ccc(O)cc1)c1ccc(OCCNC)cc1)c1ccccc1` [Endoxifen E-isomer hydrochloride] gave a cell viability of 1.04.
Compound `CCOC(=O)c1ccc(NC2CCCCC2)c(N)c1` [Ferrostatin-1] has a cell viability of 1.02.
With `O=C1c2c(O)ccc(O)c2C(=O)c2c(NCCNCCO)ccc(NCCNCCO)c21` [Mitoxantrone] the cell viability was 0.132.
With `COc1ccc2[nH]cc(/C=C3\C(=O)Nc4ccc(NC(=O)CCN5CCCCC5)cc43)c2c1` the cell viability was 1.05.
In the case of `CCN1C(=O)C=CC1=O` [N-Ethylmaleimide], the cell viability is reported as 1.16.
For `O=C(NC(Cc1cc(=O)[nH]c2ccccc12)C(=O)O)c1ccc(Cl)cc1` (stereo not drawn) [Rebamipide], the cell viability was 1.24.
With `CC(C)c1cc(C(C)C)c(CC(=O)NS(=O)(=O)Oc2c(C(C)C)cccc2C(C)C)c(C(C)C)c1` [Avasimibe] the cell viability was 0.983.
In the case of `O=C(NNc1nc2cc(F)ccc2n2cccc12)c1cnccn1`, the cell viability is reported as 0.518.
`CC(C)=CCC[C@](C)(O)[C@H]1CC[C@]2(C)[C@@H]1[C@H](O)C[C@@H]1[C@@]3(C)CC[C@H](O)C(C)(C)[C@@H]3[C@@H](O[C@@H]3O[C@H](CO)[C@@H](O)[C@H](O)[C@H]3O[C@@H]3O[C@@H](C)[C@H](O)[C@@H](O)[C@H]3O)C[C@]12C` [Ginsenoside Rg2] showed a cell viability of 1.15.

Source: the supplement of paper PMC10600219
